# Reference: PubChem BioAssay AID624296 (National Center for Advancing Translational Sciences (NCATS), 2012)
# Several values for one entry are separate records, joined by “and”; a condition that tells them apart may be missing. Identical values can stand only once. About 9,900 (2.8%) of roughly 350,000 compounds were called active. This list was built around the results that the source calls inconclusive (neither active nor inactive); the mix of calls is not that of the screen. The call rests on the fitted dose curve; in most records, active means well fitted activation curve with a large enough effect; inconclusive means small, poorly fitted or top-dose-only effect; inactive means no such curve, though single readings can be large or run the other way. Potencies of inconclusive entries are doubtful fits and often do not repeat.
# Experiment: A quantitative high throughput screen for small molecules that induce DNA re-replication in MCF 10a normal breast cells. Further: nearly all actives have a fitted effect of over 50% in size. On activity, positive = re-replication: % of control where 0% means no effect.
# Conditions: MCF 10A DNA re-replication, Hoechst nuclear intensity, 48 h; activity, positive = re-replication: at 46.1 µM (top of the series)
# Potency means the concentration at half of the fitted maximal effect; tags describe the fitted curve by direction and shape.
Structure (SMILES),Potency,"activity, positive = re-replication"
CN(CC(=O)Nc1cccc(F)c1)C(=O)c1ccccc1OCC(=O)Nc1cccc(C(F)(F)F)c1,"inconclusive: 0.13 µM [activator, full curve, poor fit]",–
CC(C)(Cc1cccc(CC(C)(C)C(=O)O)c1)C(=O)O,"inconclusive: 14.6 µM [activator, partial curve, poor fit]",–
CCOC(=O)N1CCN(S(=O)(=O)N2CCCC(C(=O)NCCc3ccc(OC)c(OC)c3)C2)CC1 (configuration not stated),"inconclusive: 18.4 µM [activator, partial curve, poor fit]",–
CCOc1ccccc1N=C1NC(=O)CS1,"inconclusive: 0.0146 µM [activator, partial curve, poor fit]",–
CCCc1nc2c(s1)CCc1onc(-c3ccc(OC)cc3)c1-2,active: 8.2 µM,–
CN(CC(=O)Nc1ccc(Cl)cc1)C(=O)c1cc(-c2cccs2)nn1-c1ccccc1,"inconclusive: 3.66 µM [activator, partial curve, poor fit]",–
CC(=O)c1ccc(NC(=S)NC(C)c2ccc(Cl)cc2Cl)cc1 (configuration not stated),"inconclusive: 29.1 µM [activator, single point]",–
c1cnc2c(OCc3cn4cccnc4n3)cccc2c1,active: 11.6 µM,–
O=S(=O)(NCc1ccc(F)cc1)c1ccc(-c2cnc(C3CC3)o2)cc1,"inconclusive: 18.4 µM [activator, single point]",–
COc1ccccc1N1CC(C)(C)C(=O)N(C(=O)c2ccc(Cl)cc2)C1=S,"inconclusive: 23.1 µM [activator, partial curve, poor fit]",–
COc1ccc(C(=O)Nc2ccc3[nH]ccc3c2)cc1OC,"inconclusive: 4.11 µM [activator, full curve]",–
Cc1cccn2c(CNCCc3ccco3)c(C(=O)N3CCOCC3)nc12,"inconclusive: 18.4 µM [activator, single point]",–
COc1cccc(CNC(=O)[C@H](CC(C)C)NC(=O)N2CCn3c2nc2ccccc23)c1,"inconclusive: 23.1 µM [activator, partial curve, poor fit]",–
CCOC(=O)/C(=C\c1cccnc1)C(=O)c1cc(C(C)=O)c(Nc2ccccc2)s1,active: 2.91 µM,–
COc1cc(OC)c2ccc(=O)oc2c1C(CCN1CCN(c2ccccc2)CC1)c1ccc(N(C)C)cc1 (configuration not stated),"inconclusive: 29.1 µM [activator, single point]",–
CC1CCCCN1Cc1c(O)ccc2c(=O)c(-c3nc4ccccc4s3)coc12 (configuration not stated),"inconclusive: 29.1 µM [activator, partial curve, poor fit]",–
O=S(=O)(c1cccc(F)c1)N1CCN(c2nc(-c3cccnc3)nc3ccccc23)CC1,"inconclusive: 3.66 µM [activator, partial curve, poor fit]",–
Cc1ccccc1CN1C(=O)/C(=C\c2ccc(C(=O)NCCN3CCOCC3)cc2)Sc2ccccc21,active: 20.6 µM,–
Cc1cccc(C2N(c3nccs3)C(=O)C3CCCN32)c1 (configuration not stated),–,inactive: -10.1%
O=c1c2c([nH]c3ccccc13)CCCCCC2,"inconclusive: 29.1 µM [activator, partial curve, poor fit]",–
Clc1ccc(Oc2cccc(/C=N/n3cnnc3)c2)cc1,"inconclusive: 32.6 µM [activator, partial curve, poor fit]",–

Structure (SMILES),Potency,"activity, positive = re-replication"
COC(=O)c1cc(CSC(=N)N)ccc1OCCC(C)C,"inconclusive: 18.4 µM [activator, partial curve, poor fit]",–
COc1ccc(/C=N/NC(=O)CCC(=O)Nc2ccc(Br)cc2)c(OC)c1,"inconclusive: 20.6 µM [activator, single point]",–
CSc1ccccc1NC(=O)CN(C)C(=O)COc1cccc2cccnc12,"inconclusive: 2.59 µM [activator, partial curve, poor fit]",–
C(=N\NC(=Nc1ccccc1)c1ccccn1)/c1ccccn1,"inconclusive: 29.1 µM [activator, single point]",–
O=C(Nc1cccc(S(=O)(=O)C(F)F)c1)c1ccc(S(=O)(=O)N2CCCC2)cc1,"inconclusive: 0.291 µM [activator, full curve, poor fit]",–
Fc1ccc(-n2cc(-c3ccccc3)c3c(NN4CCOCC4)ncnc32)cc1,"inconclusive: 10.3 µM [activator, partial curve, poor fit]",–
COc1cccc(CN(C)C(=O)c2ccc(COc3ccc(Cl)cc3)cc2)c1OC,"inconclusive: 18.4 µM [activator, single point]",–
Cn1c(CSCc2ccc(Cl)cc2)n[nH]c1=S,–,inactive: 9.52%
CCN(CC)CCN(C(=O)c1ccc2c(c1)CCCC2)c1nc2ccc(F)cc2s1,–,inactive: 7.92%
CC12CC(NC(=O)N1c1cccc(C(=O)NCc3ccc4c(c3)OCO4)c1)c1cc(Cl)ccc1O2 (configuration not stated),"inconclusive: 29.1 µM [activator, single point]",–
CCCn1c2ccccc2c2nnc(SCc3[nH]c(=O)[nH]c3C(=O)CCCCC(=O)OCC)nc21,"inconclusive: 25.9 µM [activator, partial curve, poor fit]",–
Cc1ccc(C(C)C)cc1OCCN1CCCC1,–,inactive: 16%
COc1cc(O)c2c(c1)OC(c1ccc(O)cc1)CC2=O (configuration not stated),"inconclusive: 29.1 µM [activator, partial curve, poor fit]",–
Cc1ccccc1/C=N/Nc1ccnc2cc(Cl)ccc12,active: 18.4 µM,–
CCCCN1CC(=O)N2[C@H]3c4ccccc4OC[C@@H]3[C@H](C(=O)OCC)[C@]2(C)C1=O,"inconclusive: 0.517 µM [activator, full curve, poor fit]",–
Cc1csc(NC(=O)CCCSc2nc3ccccc3s2)n1,active: 18.4 µM,–
CCCOc1ccccc1C1NC(=O)NC(C)=C1C(=O)OCCOCC (configuration not stated),"inconclusive: 29.1 µM [activator, partial curve, poor fit]",–
CCC(C)(C)C(=O)Nc1cc([N+](=O)[O-])ccc1Cl,–,inactive: 22%
CC(=O)c1cn(-c2ccc(Cl)cc2)c(=O)n(Cc2ccc(Br)cc2)c1=O,"inconclusive: 0.0041 µM [activator, full curve, poor fit]",–
NC(=O)c1sc2nc3c(c(-c4ccc(Cl)cc4)c2c1N)CCCC3,"inconclusive: 18.4 µM [activator, single point]",–
CC[C@]1(O)CC2CN(CCc3c([nH]c4ccccc34)[C@@](C(=O)OC)(c3cc4c(cc3OC)N(C=O)[C@H]3[C@@](O)(C(=O)OC)[C@H](OC(C)=O)[C@]5(CC)C=CCN6CC[C@]43[C@@H]65)C2)C1 (some centres not stated),active: 0.651 µM,–

Structure (SMILES),Potency,"activity, positive = re-replication"
CCOC(=O)c1cc2c(=O)n3ccccc3nc2n(Cc2ccc(Cl)cc2)c1=N,active: 1.64 µM,–
O=C(Cc1c(F)cccc1Cl)c1ccc(O)cc1O,"inconclusive: 16.4 µM [activator, single point]",–
COC(=O)C1=C(C)N(Cc2ccccc2)C(=NCc2ccc3c(c2)OCO3)N[C@H]1c1ccccc1,"inconclusive: 23.1 µM [activator, partial curve, poor fit]",–
Cc1ccc(-c2ccc(C(=O)NCc3ccccc3)o2)c2ccccc12,"inconclusive: 18.4 µM [activator, partial curve]",–
COc1cccc(-c2nc(NCC3CCCO3)c3ccccc3n2)c1O (configuration not stated),"inconclusive: 25.9 µM [activator, single point]",–
Cc1cccc(C(=O)N[C@H](C(=O)OCc2cc(=O)n3c(n2)sc2ccccc23)C(C)C)c1,"inconclusive: 16.4 µM [activator, partial curve, poor fit]",–
O=c1oc2ccccc2cc1-c1nc2c(s1)CCc1ccccc1-2,"inconclusive: 4.11 µM [activator, full curve, poor fit]",–
O=C(Nc1csnn1)c1csnn1,–,inactive: 0.565%
CNCCC=C1c2ccccc2CCc2ccccc21,"inconclusive: 29.9 µM [activator, partial curve, poor fit] and inconclusive: 116 nM [activator, full curve, poor fit]",–
CN(c1ccc(O)cc1)c1nc(-c2ccccc2)cs1,"inconclusive: 18.4 µM [activator, partial curve, poor fit]",–
O=S(Cc1ccc(Br)cc1)Cc1nnc(SCc2c(F)cccc2Cl)n1-c1ccccc1 (configuration not stated),"inconclusive: 18.4 µM [activator, partial curve]",–
O=C(Nc1nc2ccccc2c(=O)s1)c1ccc(F)cc1Cl,"inconclusive: 16.4 µM [activator, single point]",–
CCN1CCN(CCNC(=O)c2ccc(/C=C3\Sc4ccccc4N(Cc4ccccc4F)C3=O)cc2)CC1,active: 13 µM,–
CCN(c1ccc(NC(=O)c2cccc(S(=O)(=O)N3CCN(C)CC3)c2)cc1)C(C)C,"inconclusive: 29.1 µM [activator, single point]",–
CCCc1c(NC(=O)Nc2ccc(F)cc2)cnn1-c1ccc(Cl)cc1,"inconclusive: 29.1 µM [activator, single point]",–
O=C(COc1ccccc1Cl)NCc1ccccc1,"inconclusive: 6.51 µM [activator, single point]",–
Cc1cccc(OCCCSc2nc3ccc(C)cc3[nH]2)c1,"inconclusive: 23.1 µM [activator, partial curve, poor fit]",–
CCN(CC)c1ccc(N=Cc2ccccc2[N+](=O)[O-])cc1,"inconclusive: 0.0291 µM [activator, full curve, poor fit]",–
Nc1nonc1-n1nnc(C(=O)N/N=C/c2cccnc2)c1CSc1ccccc1,–,inactive: 0.909%
CCC(NC(=O)c1cc(COc2ccc(F)cc2Cl)on1)c1ccncc1 (configuration not stated),"inconclusive: 2.59 µM [activator, partial curve, poor fit]",–
